Among all 43,000 compounds or so, about 200 (0.47%) were called active. Inconclusive results (about 12%) are left out. Calls follow the shape of the dose curve; as a rule, active = well fitted cell-killing curve with a large enough effect; inconclusive = small, poorly fitted or top-dose-only effect, or effect the other way; inactive = flat fitted curve, though single readings scatter. This is one part of the list.
Test: Cell viability qHTS assay in S16 Pmp22-F2sN cells; also: nearly all actives have a fitted effect of over 65% in size
Details: S16 Pmp22-F2sN Schwann cells viability, CellTiter-Glo, 24 h; series mostly up to 57.5 µM; activity change, negative = cytotoxicity: at the top concentration
Method in brief: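 Viability was measured by CellTiter-Glo luminescence (15 min, room temperature). This followed 24 h at 37 °C of compound exposure (23 nL pin transfer) in S16 Pmp22-F2sN Schwann cells, 500-1,000 per well.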
% is scaled to controls: 0 for no effect and ±100 for the full control effect.

With `COc1ccc(C(=O)Nc2ccc(-c3nc4ncccc4o3)cc2)cc1` as the compound, how does the “activity change, negative = cytotoxicity” value read?
Its value is inactive: 6.27%.

Which “activity change, negative = cytotoxicity” value does the source give for `CCN(CC)c1ccc(NC(=O)CSc2nnc(C)c(=O)[nH]2)cc1` here?
Its value is inactive: -12.1%.

With `Cc1ccc(S(=O)(=O)c2cnc(SCC(=O)Nc3cc(C)cc(C)c3)nc2N)cc1` as the compound, how does the “activity change, negative = cytotoxicity” value read?
Its value is inactive: 5.87%.

With `Cc1cc(Nc2ccc(C)c(C)c2)n2cnnc2n1` as the compound, how does the “activity change, negative = cytotoxicity” value read?
The value was inactive: 5.02%.

Which “activity change, negative = cytotoxicity” value does the source give for `COC(=O)c1ccccc1NC(=O)Cn1cc(S(=O)(=O)Cc2ccccc2F)c2ccccc21` here?
Its value is inactive: -4.86%.

Which “activity change, negative = cytotoxicity” value does the source give for `CCOC(=O)c1c(C)oc2nc(C)nc(NCc3ccccc3Cl)c12` here?
The value was inactive: 8.21%.

With `CCCCc1ccc(-n2nc3cc(C)c(NC(=O)Cc4ccccc4)cc3n2)cc1` as the compound, how does the “activity change, negative = cytotoxicity” value read?
The value was inactive: 1.32%.

Which “activity change, negative = cytotoxicity” value does the source give for `Cc1ccc2cccc(NC(=O)COc3ccccc3[N+](=O)[O-])c2n1` here?
Its value is inactive: -5.16%.

For `COC(=O)c1c(-c2cccs2)csc1NC(=O)c1ccc(Cl)cc1`, which “activity change, negative = cytotoxicity” value is on record?
Its value is inactive: -0.495%.

With `Cc1cccc(CN2C(=O)c3ccccc3Sc3ccc(C(=O)N4CCCC4)cc32)c1` as the compound, how does the “activity change, negative = cytotoxicity” value read?
Its value is inactive: 1.51%.

For `CCOC(=O)c1c(NC(=O)COc2ccccc2F)sc2c1CCCC2`, which “activity change, negative = cytotoxicity” value is on record?
The value was inactive: 6.77%.

Which “activity change, negative = cytotoxicity” value does the source give for `CSCCC(NS(=O)(=O)c1ccc2c(c1)oc(=O)n2C)C(=O)NCCc1ccc(C)cc1` (configuration not stated) here?
Its value is inactive: 0.0309%.

With `CCS(=O)(=O)N1CCC(C(=O)NCCC(C)C)CC1` as the compound, how does the “activity change, negative = cytotoxicity” value read?
The value was inactive: 10.2%.

With `CN(C1CCCCC1)S(=O)(=O)c1ccc2c(c1)c(=O)c(C(=O)NCCc1ccc(Cl)cc1)cn2C` as the compound, how does the “activity change, negative = cytotoxicity” value read?
Its value is inactive: 1.79%.

For `CC(=O)Nc1ccc(S(=O)(=O)NC2(C(F)(F)F)NC(=O)N(c3ccc(C)cc3)C2=O)cc1` (configuration not stated), which “activity change, negative = cytotoxicity” value is on record?
Its value is inactive: 3.07%.

With `O=C(c1cccc([N+](=O)[O-])c1)N1c2ncnn2C2(CCCCC2)[C@@H]2CCCC[C@@H]21` as the compound, how does the “activity change, negative = cytotoxicity” value read?
The value was inactive: -12.5%.

With `Cc1ccc(S(=O)(=O)c2cnc(SCC(=O)Nc3ccc4c(c3)OCCO4)[nH]c2=O)cc1` as the compound, how does the “activity change, negative = cytotoxicity” value read?
Its value is inactive: 5.08%.

Which “activity change, negative = cytotoxicity” value does the source give for `COc1cccc(OCCCCn2c(-c3ccc(Cl)cc3)nc3ccccc3c2=O)c1` here?
The value was inactive: 4.99%.

With `Cc1ccc(-c2onc(C)c2C)cc1S(=O)(=O)NCc1ccco1` as the compound, how does the “activity change, negative = cytotoxicity” value read?
Its value is inactive: -10.2%.

Which “activity change, negative = cytotoxicity” value does the source give for `O=S(=O)(NCCSc1nnnn1-c1ccccc1)c1ccc(F)cc1` here?
The value was inactive: -0.553%.

Which “activity change, negative = cytotoxicity” value does the source give for `CCc1nc2nc(C)cc(Nc3ccc(OC)cc3)n2n1` here?
The value was inactive: -19.6%.

For `Cn1c(SCC(=O)N2CCCc3ccccc32)ncc(C(=O)Nc2ccc(Cl)cc2)c1=O`, which “activity change, negative = cytotoxicity” value is on record?
Its value is inactive: 8.76%.

With `COc1cccc(CN(Cc2ccco2)c2cnc(S(C)(=O)=O)nc2C(=O)Nc2cccc(Cl)c2C)c1` as the compound, how does the “activity change, negative = cytotoxicity” value read?
The value was inactive: -0.312%.

With `COc1ccc(OC)c(NC(=O)c2cc3c(s2)-c2ccccc2SC3)c1` as the compound, how does the “activity change, negative = cytotoxicity” value read?
Its value is inactive: -7.02%.

Which “activity change, negative = cytotoxicity” value does the source give for `Cc1c(NS(=O)(=O)c2cccc(C(=O)O)c2)c(=O)n(-c2ccccc2)n1C` here?
Its value is inactive: 1.74%.

Which “activity change, negative = cytotoxicity” value does the source give for `COc1ccccc1-c1c(C)nn2c(N3CCN(c4cccc(Cl)c4)CC3)cc(C)nc12` here?
Its value is inactive: 3.12%.

With `O=C(CSc1nnc(CNC(=O)c2c(F)cccc2Cl)o1)Nc1ccccc1F` as the compound, how does the “activity change, negative = cytotoxicity” value read?
The value was inactive: -2.06%.

Reference: PubChem BioAssay AID1508642 (National Center for Advancing Translational Sciences (NCATS), 2021)
